Laboratory results published in PubChem BioAssay AID686979 (National Center for Advancing Translational Sciences (NCATS), 2013).
Where “and” joins values, the source holds several entries; their conditions need not be identical. Equal entries are not always repeated. Hit rate of the full screen: of about 420,000 compounds, about 50,000 (12%) were called active. The shares of active, inactive and inconclusive entries below differ from those in the screen. Calls follow the shape of the dose curve; as a rule, active = well fitted inhibition curve with a large enough effect; inconclusive = small, poorly fitted or top-dose-only effect; inactive = flat fitted curve, though single readings scatter. No potency is given beside an inconclusive call; the fits are too rough.

Assay: qHTS for Inhibitors of human tyrosyl-DNA phosphodiesterase 1 (TDP1): qHTS in cells in presence of CPT; also: nearly all actives have a fitted effect of over 55% in size
Conditions: chicken DT40 Tdp1-/-;hTDP1 cells + 20 nM CPT, ATP luminescence, 48 h; activity change, negative = growth inhibition: at 46.2 µM (top of the series) unless noted
Summary of the method: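 Cell growth measured by CellTiter-Glo luminescence after a minimum 48 h, 37 C compound exposure with 20 nM CPT in Tdp1-knockout DT40 cells stably expressing hTDP1, seeded 400/well; qHTS titration format.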
% is scaled to controls: 0 for no effect and ±100 for the full control effect; potency is read from the fitted curve at half-maximal effect; tags tell the direction and shape of the fitted curve.

Row | SMILES | Potency | activity change, negative = growth inhibition
1 | Cn1cnc(S(=O)(=O)N2CCCCC2c2cc(C(=O)Nc3ccc(F)c(Cl)c3)no2)c1 (stereo unspecified) | inconclusive [inhibitor, single point] | –
2 | O=C1C(=O)N(CCO)C(c2ccccc2[N+](=O)[O-])/C1=C(\O)c1ccccc1 (stereo unspecified) | – | inactive: 10.1%
3 | CCc1n[nH]c2c1/C(=N\O)CC(C)(C)C2 | – | inactive: 2.05%
4 | CC1=NN(S(=O)(=O)c2ccc(Cl)cc2Cl)C(=O)c2ccccc2O1 | active: 16.4 µM | –
5 | CCOc1ccc(NC2SC(=O)N(Cc3ccccc3)C2=O)cc1 (stereo unspecified) | – | inactive: 7.29%
6 | Cc1nc(NCCc2ccccc2)c2nnn(Cc3ccccc3Cl)c2n1 | inconclusive [inhibitor, single point] | –
7 | Cc1ccc(S(=O)(=O)N2CCC(C(=O)Nc3ccccc3N3CCCCC3)CC2)cc1 | active: 18.4 µM | –
8 | Cc1ccc(Cl)cc1N1CCN(C(=O)Cc2cn(C)c3ccccc23)CC1 | inconclusive [inhibitor, single point] | –
9 | COC(=O)c1cccnc1-n1c(=O)c2cccnc2n(Cc2cccc(C(F)(F)F)c2)c1=O | inconclusive [inhibitor, single point] | –
10 | Cc1ccc(-c2nc3c(cnn3-c3ccccc3)c(=O)o2)cc1 | – | inactive: -22.2%
11 | COc1ccc(Cn2c(CO)cnc2SCC(=O)Nc2ccc3c(c2)OCCO3)cc1 | – | inactive: 2.5%
12 | CC(C)(C)OC(=O)NC1CCN(S(=O)(=O)c2ccc3c(c2)OCCO3)CC1 | inconclusive [inhibitor, single point] | –
13 | C=CCCC1(C)C(=O)N(c2ccccc2)c2ccccc21 (stereo unspecified) | inconclusive [inhibitor, single point] | –
14 | O=C(Nc1nnc(SCc2ccc(F)cc2)s1)c1cnccn1 | inconclusive [inhibitor, single point] | –
15 | O=C(Nc1cccs1)Nc1ccc(F)cc1F | active: 18.4 µM and active: 23.1 µM | –
16 | O=C(O)Cn1c(-c2cccs2)cc2cc(Cl)ccc21 | – | inactive: -18%
17 | O=C(Nc1cccc(C(F)(F)F)c1)c1cc(-c2ccc(Cl)s2)nc2ccccc12 | inconclusive [inhibitor, partial curve] | –
18 | Cc1cc(-c2ccnc(-n3ncc(C(=O)NCC4COCCO4)c3C)n2)c(C)s1 (stereo unspecified) | inconclusive [inhibitor, single point] | –
19 | COCc1[nH]nc2c1C(c1ccc(OC)cc1)C(C#N)=C(N)O2 (stereo unspecified) | – | inconclusive: -32% [inhibitor]
20 | Cc1ccc(Nc2nc(C)nc3c2oc2ccccc23)cc1 | inconclusive [inhibitor, single point] | –
21 | O=C(CCCCn1c(=O)[nH]c2ccccc2c1=O)N1CCN(c2cccc(C(F)(F)F)c2)CC1 | active: 16.4 µM | –
